Target: Human PSMA (Homo sapiens, UniProt Q04609)
Assay: ELISA binding of naked anti-PSMA antibodies to coated human PSMA
Settings: human PSMA coated at 3 μg/ml
Protocol: Human PSMA was coated on a 96 well plate at 3 μg/ml for at least two hours at room temperature. The plate was washed with wash buffer (0.05% Tween-20 in PBS), then blocked with blocking buffer (3% BSA in PBS) washed again using wash buffer. After which antibodies were titrated from 66.6 nM to 0.013 nM and added to the plate and incubated at room temperature for one hour, after which the plate was washed and anti-human-IgG-HRP added, the plate was incubated for a further 1 hour at room temperature, before being washed and TMB detection reagent added, the reaction was stopped by the addition of 1M HCl to the wells, after which the plate was read at 450 nm using the SpectraMax plate reader.

Chain of Human PSMA (Q04609 whole entry): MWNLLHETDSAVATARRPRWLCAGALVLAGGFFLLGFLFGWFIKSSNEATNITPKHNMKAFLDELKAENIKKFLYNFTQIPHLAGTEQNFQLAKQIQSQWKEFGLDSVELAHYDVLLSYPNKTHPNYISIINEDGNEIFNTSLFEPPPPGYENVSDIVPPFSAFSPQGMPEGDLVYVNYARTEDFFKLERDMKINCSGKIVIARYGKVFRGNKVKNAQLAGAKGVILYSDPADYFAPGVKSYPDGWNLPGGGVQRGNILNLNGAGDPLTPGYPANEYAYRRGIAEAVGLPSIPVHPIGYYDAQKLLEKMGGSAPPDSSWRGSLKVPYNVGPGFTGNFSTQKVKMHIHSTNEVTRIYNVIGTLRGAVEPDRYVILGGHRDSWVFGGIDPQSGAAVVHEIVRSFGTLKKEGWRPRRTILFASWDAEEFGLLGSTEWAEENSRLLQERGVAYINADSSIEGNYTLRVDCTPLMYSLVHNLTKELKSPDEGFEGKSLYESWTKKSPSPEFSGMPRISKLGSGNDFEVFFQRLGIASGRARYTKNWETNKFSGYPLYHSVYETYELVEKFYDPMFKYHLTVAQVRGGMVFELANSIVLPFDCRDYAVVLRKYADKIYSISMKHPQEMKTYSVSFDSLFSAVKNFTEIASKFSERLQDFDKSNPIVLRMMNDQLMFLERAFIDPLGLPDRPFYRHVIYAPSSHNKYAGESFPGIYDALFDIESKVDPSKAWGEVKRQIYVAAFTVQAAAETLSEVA

B1: Mdx 2A10: anti-PSMA antibody, U.S. Pat. No. 7,875,278; heavy and light chains SEQ ID NOs: 9 and 10 (antibody)
heavy: EVQLVQSGAEVKKPGESLKISCKGSGYSFTSNWIGWVRQMPGKGLEWMGIIYPGDSDTRYSPSFQGQVTISADKSISTAYLQWSSLKASDTAMYYCARQTGFLWSSDLWGRGTLVTVSS[human IgG1 constant region not given here]
light: AIQLTQSPSSLSASVGDRVTITCRASQDISSALAWYQQKPGKAPKLLIYDASSLESGVPSRFSGYGSGTDFTLTINSLQPEDFATYYCQQFNSYPLTFGGGTKVEIKRTVAAPSVFIFPPSDEQLKSGTASVVCLLNNFYPREAKVQWKVDNALQSGNSQESVTEQDSKDSTYSLSSTLTLSKADYEKHKVYACEVTHQGLSSPVTKSFNRGEC
EC50: lowest (best) value
